We go through 22 compounds from PubChem BioAssay (NCI).

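Growth conditions: 96-well plates. Treatment: test compound, 48 hours, 5 concentrations. Analysis: linear interpolation between bracketing concentrations; unreached endpoints set to highest concentration. The concentration for 50% growth inhibition is given as GI50. TGI marks complete inhibition of growth.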 A value given as a limit tells only on which side of the number the result lay.

The subject of this assay is NCI-H322M lung. In words: NCI anticancer screen, dose series, 48 h.
On to `O=c1[nH]c(=O)n(C2CC(O)C(COP(=O)(O)OC3CC(n4cc(F)c(=O)[nH]c4=O)OC3COP(=O)(O)OC3CC(n4cc(F)c(=O)[nH]c4=O)OC3COP(=O)(O)OC3CC(n4cc(F)c(=O)[nH]c4=O)OC3COP(=O)(O)OC3CC(n4cc(F)c(=O)[nH]c4=O)OC3COP(=O)(O)OC3CC(n4cc(F)c(=O)[nH]c4=O)OC3COP(=O)(O)OC3CC(n4cc(F)c(=O)[nH]c4=O)OC3COP(=O)(O)OC3CC(n4cc(F)c(=O)[nH]c4=O)OC3COP(=O)(O)OC3CC(n4cc(F)c(=O)[nH]c4=O)OC3COP(=O)(O)OC3CC(n4cc(F)c(=O)[nH]c4=O)OC3CO)O2)cc1F` (stereo not drawn), for which the TGI was > 50 µM.
Regarding `CC(C)c1ccc2c(N=Nc3ccc(S(N)(=O)=O)cc3)c(O)[nH]c2c1`, the GI50 is > 22.5 µM and the TGI was > 25 µM.
For `CCCCCCCCCCCC1=NC(C)(C)CN1CCO`, the GI50 is 12.4 µM and the TGI was determined as 27.7 µM.
As for `NCCCCC(N)C(=O)N1CCN(c2nc(N3CCCC3)c3nc(Cl)c(NCc4ccccc4)nc3n2)CC1` (stereo not drawn), the TGI came out at 33.6 µM.
On to `CCCCCCCCCCCCOC1C(CNC(=O)C2OC3OC(C)(C)OC3C2NC(=O)CN2CCN(c3ccccn3)CC2)OC2OC(C)(C)OC21` (stereo not drawn), for which the GI50 was 2.43 µM and the TGI is 5.78 µM.
On to `CCOC(=O)C1=C(N)Oc2c(sc3c(C)cccc23)C1c1ccc(Cl)cc1` (stereo not drawn), for which the GI50 was 6.96 µM and the TGI was 21.7 µM.
Consider `COc1ccc(-c2cn(-c3ccc(Cl)cc3)c(=S)[nH]2)cc1OC`, for which the GI50 was 51.5 µM and the TGI is > 100 µM.
Regarding `C[N+](C)(C)CCC(=O)N1C/C(=C\c2ccccc2)C(=O)/C(=C/c2ccccc2)C1`, the TGI came out at 28.7 µM.
Take `COc1ccc(/C=C2\N=C(c3ccccc3)N(c3cc(C(F)(F)F)ccc3Cl)C2=O)cc1OC`: the GI50 was > 100 µM and the TGI was > 100 µM.
`O/N=C(\C=N\O)c1ccc2c(c1)Sc1ccccc1O2`: the TGI was determined as 94.8 µM.
The same measure, in the same setting: for `CC(N)C(=O)c1ccc(O)cc1` (stereo not drawn) the value was > 100 µM.
For `O=C(Nc1ncc(Cc2ccccc2)s1)c1ccc2c(c1)OCCO2`, the GI50 was 0.0556 µM and the TGI was > 100 µM.
As for `Brc1ccccc1/C=C\C1(c2ccccc2)OCCO1`, the TGI is 30 µM.
In the case of `C[As](C)Sc1ccnc(S[As](C)C)n1`, the GI50 is 29.5 µM and the TGI was > 54.8 µM.
`O=C1C(c2ccc([N+](=O)[O-])cc2)=[N+]([O-])c2ccccc21`: the TGI was > 100 µM.
Turning to `O=C(CSc1nc2ccc([N+](=O)[O-])cc2[nH]1)Nc1cccc(Cl)c1`, the GI50 is 3.2 µM and the TGI was 15.2 µM.
Consider `C/C(=N\Nc1ccc2ccccc2n1)c1ccccc1O`, for which the TGI is > 100 µM.
`COc1c(C(=O)/C(=N/Nc2ccccc2)C(C)=O)c(O)c(OC)c2occc12`: the TGI is > 100 µM.
Regarding `O=C1Nc2cc(Cl)ccc2Oc2cc(Oc3ccccc3)ccc21`, the GI50 is 9.98 µM and the TGI is > 100 µM.
With `CC(=O)Nc1ccc(C2=N/C(=C\c3ccc(Cl)c(Cl)c3)C(=O)O2)cc1`, the TGI was > 100 µM.
As to `CC(C)(C)C(=O)OCOP(=O)(OCOC(=O)C(C)(C)C)C1CCCN(OC(=O)c2ccccc2)C1=O` (stereo not drawn), the GI50 is 1.48 µM and the TGI came out at 6.77 µM.
`Cc1c(C)c(S(=O)(=O)N(CCCCCN)OCCCN)c(C)c2c1OC(C)(C)CC2` gave a TGI of 24.7 µM.
